# Measured values as given in PubChem BioAssay AID1030 (National Center for Advancing Translational Sciences (NCATS), 2008).
# The campaign covered roughly 220,000 compounds. About 16,000 (7.3%) were called active. Inconclusive means that the source gave no clear call. Such entries were picked first, then a sample of the others. Calls follow the shape of the dose curve; as a rule, active = well fitted inhibition curve with a large enough effect (not every such curve was filed as active); inconclusive = small, poorly fitted or top-dose-only effect, or another doubt; inactive = no such curve, though single readings can be large or run the other way. Potencies of inconclusive entries are left out as doubtful fits.
# Target: Aldehyde dehydrogenase 1A1 (Homo sapiens) (UniProt P00352)
# Assay: qHTS Assay for Inhibitors of Aldehyde Dehydrogenase 1 (ALDH1A1);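 as to activity, negative = inhibition: plate controls were no enzyme wells and a reference inhibitor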
# Conditions: Purified ALDH1A1, NADH fluorescence, propionaldehyde substrate; series mostly up to 75.3 µM; activity, negative = inhibition: at the top concentration
# Potency is read from the fitted curve at half-maximal effect; tags tell the direction and shape of the fitted curve.
# Chain of UniProt P00352 (P00352 whole entry, looked up): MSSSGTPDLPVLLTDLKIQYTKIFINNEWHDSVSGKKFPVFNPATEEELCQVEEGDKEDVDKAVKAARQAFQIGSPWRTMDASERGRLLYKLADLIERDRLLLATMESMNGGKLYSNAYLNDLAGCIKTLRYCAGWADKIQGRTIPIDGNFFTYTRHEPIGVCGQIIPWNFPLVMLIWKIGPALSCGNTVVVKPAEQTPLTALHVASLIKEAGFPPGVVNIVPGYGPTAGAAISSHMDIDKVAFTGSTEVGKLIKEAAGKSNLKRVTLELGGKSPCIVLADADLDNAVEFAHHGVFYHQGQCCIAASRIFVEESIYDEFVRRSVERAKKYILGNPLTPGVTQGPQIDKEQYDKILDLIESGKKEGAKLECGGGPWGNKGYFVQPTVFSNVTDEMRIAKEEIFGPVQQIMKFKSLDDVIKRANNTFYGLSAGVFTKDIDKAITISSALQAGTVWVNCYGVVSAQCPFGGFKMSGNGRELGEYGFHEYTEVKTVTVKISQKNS
Compound,"activity, negative = inhibition",Potency
CCOC(=O)c1c(C)n(COCCO)c2ccc(O)cc12,inactive: 1.87%,–
O=[N+]([O-])c1cc2c(cc1CNCCc1ccc3c(c1)OCO3)OCO2,–,active: 28.2 µM
CCCCC/C=C\C/C=C\C/C=C\C/C=C\CCCC(=O)OCCN,–,"inconclusive [inhibitor, partial curve]"
CCn1c(O)c(C(=O)CC2NCCc3ccccc32)c(=O)n(CC)c1=S (configuration not stated),–,active: 1.26 µM
Cc1cc(OC(=O)CCNC(=O)OC(C)(C)C)c2c3c(c(=O)oc2c1)CCC3,–,active: 1.78 µM
CN1CC[C@]2(C)c3cc(O)ccc3N(C)[C@@H]12,inactive: -14.6% [at 20.9 µM],–
Cn1ccc(NC(=O)CCl)n1,–,active: 20 µM
COC(=O)c1ccc(N2C(=O)CC(N3CCC(n4c(=O)[nH]c5ccccc54)CC3)C2=O)cc1 (configuration not stated),–,active: 10 µM
C[C@H](N)C(=O)N[C@@H](C)C(=O)N[C@@H](Cc1ccccc1)C(=O)CCl,inactive: -15.6%,–
CC(=O)CCc1ccccc1,–,active: 25.1 µM
COCCNC(=O)c1c(N)n(CCC(C)C)c2nc3ccccc3nc12,–,"inconclusive [inhibitor, partial curve]"
Brc1ccc(-c2ccccc2)cc1,–,"inconclusive [inhibitor, partial curve]"
Cc1ccc2c(c1)N(CCC(=O)N1CCC3(CC1)OCCO3)C(=O)C(C)O2 (configuration not stated),–,"inconclusive [inhibitor, single point]"
O=c1c2ccccc2nc(N2CCCC2)n1-c1ccccc1,–,"inconclusive [inhibitor, single point]"
CCOP(=O)(C1=C(O)C(=O)C(C(C)(C)C)=CC1=O)c1ccccc1 (configuration not stated),–,"inconclusive [inhibitor, single point]"
N[C@@H](CP(=O)(O)O)C(=O)O,inactive: 7.9% [at 13.5 µM],–
COc1ccc(N2C(=O)C(Cl)=C(N3CCN(Cc4ccccc4)CC3)C2=O)cc1,–,"inconclusive [inhibitor, partial curve]"
CCOc1ccc2nc(N3CCC(C(=O)N4CCC5(CC4)OCCO5)CC3)sc2c1,–,"inconclusive [inhibitor, single point]"
Cc1ccnc(-n2c(-c3ccco3)nc3ccccc3c2=O)c1,–,"inconclusive [inhibitor, single point]"
Cc1cccc(-n2c(-c3ccco3)nc3ccccc3c2=O)n1,inactive: -11.3%,–
CCOC(=O)Cc1[nH]nc2c1C(c1ccoc1)C(C#N)=C(N)O2 (configuration not stated),–,"inconclusive [inhibitor, partial curve]"
Cc1cc(Br)ccc1N1C(=O)CC(=O)NC1=O,inactive: -1.35%,–
